For assay [1], the system named is HSkMC (human skeletal muscle cells). Kind of assay: cytotoxicity call (relative viability < 0.9). Particulars: 10 µM.
Assay [2] concerns S. aureus RN4220. The experiment in a line: growth inhibition call (relative growth <= 0.2). Particulars: 50 µM.

This is one part of the list.

Turning to `C[C@H]1CN([C@@H](C)CO)C(=O)Cc2cc(NC(=O)Cc3cn(C)c4ccccc34)ccc2O[C@@H]1CN(C)Cc1ccc(C(=O)Nc2ccccc2N)cc1`, the cytotoxicity call in assay [1] was “inactive”. Also, the growth inhibition call in assay [2] was “inactive”.
`O=S(=O)(NCCCN(CCCc1ccccc1)CCCc1ccccc1)c1cccc2cnccc12`: the cytotoxicity call in assay [1] was “inactive”. The growth inhibition call in assay [2] is “inactive”.
Regarding `CCOC(=O)[C@H](CCc1ccccc1)N[C@@H](C)C(=O)N1C(=O)N(C)C[C@H]1C(=O)O`, the cytotoxicity call in assay [1] was “inactive”. For the same compound, the growth inhibition call in assay [2] is “inactive”.
Regarding `C[C@H]1CN([C@@H](C)CO)C(=O)Cc2cc(NC(=O)Cc3ccccc3)ccc2O[C@@H]1CN(C)Cc1ccc(-c2ccccc2)cc1`, the cytotoxicity call in assay [1] was “inactive”. Also, the growth inhibition call in assay [2] is “inactive”.
As to `C[C@@H]1CN([C@H](C)CO)C(=O)Cc2cc(NC(=O)Cn3cnnn3)ccc2O[C@H]1CN(C)S(=O)(=O)c1ccc(F)cc1`, the cytotoxicity call in assay [1] is “inactive”. Moreover, the growth inhibition call in assay [2] was “inactive”.
`C[C@@H]1CN([C@@H](C)CO)C(=O)c2cc(NS(=O)(=O)c3ccc(Cl)cc3)ccc2O[C@@H](C)CCCCO[C@@H]1CN(C)C(=O)Nc1ccc(F)cc1`: in assay [1], the cytotoxicity call is “inactive”. In addition, the growth inhibition call in assay [2] is “inactive”.
Take `CC(=O)OC1CCC2(C)C(CCC3(C)C2CCC24OC(=O)C5(CCC(C)C(C)C52)CCC34C)C1(C)C` (stereo not drawn): the cytotoxicity call in assay [1] is “inactive”. Moreover, the growth inhibition call in assay [2] was “inactive”.
Consider `C[C@@H]1CCCCO[C@@H](CN(C)C(=O)C2CCCCC2)[C@@H](C)CN([C@@H](C)CO)C(=O)c2cc(NC(=O)Nc3ccc(F)cc3)ccc2O1`, for which the cytotoxicity call in assay [1] was “inactive”. For the same compound, the growth inhibition call in assay [2] is “inactive”.
For `C[C@H](O)C#Cc1ccc2c(c1)O[C@@H](CN(C)C(=O)C1CCCCC1)[C@@H](C)CN([C@@H](C)CO)S2(=O)=O`, the cytotoxicity call in assay [1] was “inactive”. The growth inhibition call in assay [2] was “inactive”.
In the case of `CNC[C@H]1Oc2cc(C#CC(C)(C)O)ccc2S(=O)(=O)N([C@H](C)CO)C[C@H]1C`, the cytotoxicity call in assay [1] was “inactive”. Moreover, the growth inhibition call in assay [2] was “inactive”.
For the compound `C/C=C/c1ccc(OC)cc1`, in assay [1], the cytotoxicity call is “inactive”. Besides, the growth inhibition call in assay [2] is “inactive”.
Consider `C[C@@H]1CCCCO[C@H](CN(C)C(=O)Nc2cccc3ccccc23)[C@H](C)CN([C@@H](C)CO)C(=O)c2cc(NC(=O)c3ccncc3)ccc2O1`, for which the cytotoxicity call in assay [1] was “inactive”. Besides, the growth inhibition call in assay [2] is “inactive”.
`COc1ccc(OC)c(S(=O)(=O)N2[C@@H]3CC[C@@H](C3)[C@H]2c2nc3cccc(OCc4ccccc4)c3[nH]2)c1`: the cytotoxicity call in assay [1] was “inactive”. Moreover, the growth inhibition call in assay [2] was “inactive”.
Consider `COc1ccc2c3c(n(c2c1)C)[C@H](CO)N(CC1CCCC1)C[C@]13CCN(CC1)C(=O)Nc1ccccc1`, for which the cytotoxicity call in assay [1] was “inactive”. Moreover, the growth inhibition call in assay [2] was “inactive”.
As for `NC(=O)c1cn([C@@H]2O[C@H](CO)[C@@H](O)[C@H]2O)c2ncnc(N)c2c1=O`, the cytotoxicity call in assay [1] is “active”. Moreover, in assay [2], the growth inhibition call is “inactive”.
For the compound `C[C@@H]1CN([C@H](C)CO)S(=O)(=O)c2ccc(/C=C/c3ccccc3)cc2O[C@H]1CN(C)C(=O)Nc1cc(F)ccc1F`, the cytotoxicity call in assay [1] is “active”. The growth inhibition call in assay [2] is “inactive”.
Turning to `Cn1cnc(S(=O)(=O)N[C@@H]2CC[C@H](CC(=O)NCC3CC3)O[C@H]2CO)c1`, in assay [1], the cytotoxicity call is “inactive”. Also, the growth inhibition call in assay [2] is “inactive”.
In the case of `Clc1ccc(CON=C(Cn2ccnc2)c2ccc(Cl)cc2Cl)c(Cl)c1.O=[N+]([O-])O`, in assay [1], the cytotoxicity call is “inactive”. In assay [2], the growth inhibition call was “active”.
For `CNC(=O)C(=O)Nc1ccc(C)c(F)c1` the same measures were “inactive” and “inactive”.
Consider `C[C@H](CO)N1C[C@H](C)[C@@H](CN(C)Cc2ccc(Oc3ccccc3)cc2)Oc2ccc(NS(=O)(=O)c3cccs3)cc2CC1=O`, for which, in assay [1], the cytotoxicity call was “inactive”. Moreover, in assay [2], the growth inhibition call is “inactive”.
As for `C[C@@H]1CN([C@@H](C)CO)C(=O)c2cc(NC(=O)NC3CCCCC3)ccc2O[C@@H](C)CCCCO[C@@H]1CN(C)C(=O)Nc1ccccc1`, the cytotoxicity call in assay [1] was “inactive”. The growth inhibition call in assay [2] was “inactive”.
With `C[C@H](CO)N1C[C@H](C)[C@@H](CN(C)S(=O)(=O)c2cccs2)Oc2ccc(NC(=O)Cn3cnnn3)cc2CC1=O`, the cytotoxicity call in assay [1] is “inactive”. Further, in assay [2], the growth inhibition call was “inactive”.
Regarding `Cc1noc(C)c1S(=O)(=O)Nc1ccc2c(c1)C(=O)N([C@@H](C)CO)C[C@@H](C)[C@H](CN(C)Cc1ccccc1)OCCCC[C@H](C)O2`, in assay [1], the cytotoxicity call is “inactive”. The growth inhibition call in assay [2] is “inactive”.
In the case of `C[C@H](CO)N1C[C@H](C)[C@@H](CN(C)C(=O)CCC(F)(F)F)OCCCC[C@H](C)Oc2ccc(NC(=O)CCC(F)(F)F)cc2C1=O`, the cytotoxicity call in assay [1] was “inactive”. Also, in assay [2], the growth inhibition call was “inactive”.
In the case of `C[C@@H]1CN([C@@H](C)CO)C(=O)Cc2cc(NC(=O)C3CCCCC3)ccc2O[C@H]1CN(C)Cc1ccc(Cl)c(Cl)c1`, the cytotoxicity call in assay [1] was “inactive”. Besides, in assay [2], the growth inhibition call is “inactive”.
In the case of `C[C@H](O)C#Cc1ccc2c(c1)O[C@@H](CN(C)C(=O)C1CCCCC1)[C@@H](C)CN([C@H](C)CO)S2(=O)=O`, the cytotoxicity call in assay [1] was “inactive”. Further, the growth inhibition call in assay [2] is “inactive”.
`C[C@@H]1CN([C@H](C)CO)C(=O)c2cc(NC(=O)c3ccccc3)ccc2O[C@@H](C)CCCCO[C@H]1CN(C)C(=O)Nc1ccc(C(F)(F)F)cc1`: the cytotoxicity call in assay [1] was “inactive”. In addition, the growth inhibition call in assay [2] is “inactive”.
As to `OCCN1CCN(c2ncnc3c2ncn3[C@H]2CN(Cc3ccccc3)C[C@@H](CO)O2)CC1`, in assay [1], the cytotoxicity call was “inactive”. Moreover, in assay [2], the growth inhibition call was “inactive”.
With `Nc1nc(=O)c2ncn(CCC(CO)CO)c2[nH]1`, the cytotoxicity call in assay [1] was “inactive”. Also, the growth inhibition call in assay [2] was “inactive”.

For the origin of these results see the antibiotic and cytotoxicity screens of Wong et al. (2023).
